Data published in article PMC4568306 (Nature, 2015).
Blank lines part the entries; values can stand above or below the binder they belong to.

Legend:
Experiment in all cases: cross-linking
[1] = target: PS1 N190C (human, UniProt P49768, N190C)
[2] = target: nicastrin H222C (human, UniProt Q92542, H222C)
[3] = target: nicastrin V224C (human, UniProt Q92542, V224C)

binding result [1]: binds
B1: Pen-2 P97C (natural protein)
chain: not shown

binding result [2]: binds
B2: Pen-2 L98C (natural protein)
chain: not shown

binding result [3]: binds
B3: Pen-2 T100C (natural protein)
chain: not shown
